Values joined by “and” are separate entries in the source; they are usually repeats but may differ in a detail not shown here. Equal values may be shown once. Read-outs that look alike come from different tables or passages of the source. No end group written: not given here.
Key:
[1] = tested on: S. pneumoniae D39 (type 2)
[2] = tested on: S. pneumoniae T4 (type 4)
[3] = 100 μM peptide, 3 h post‐infection

Molecule | Colonies at 100X dil, viable intracellular bacteria in DCs [1] | Colonies at 100X dil, viable intracellular bacteria in DCs [2] | number of intracellular bacteria in DCs, D39 [1, 3] | Colonies at 100X dil, viable intracellular bacteria in DCs ([1]; DCs+D39, MOI 10, 3 h post‐infection, 100 μM peptide, Exp1) | Viable intracellular bacteria in DCs ([1]; DCs+D39, Exp1) [CFU/ml*10^5] | Colonies at 100X dil, viable intracellular bacteria in DCs ([1]; DCs+D39, Exp 2) | Viable intracellular bacteria in DCs ([1]; DCs+D39, Exp 2) [CFU/ml*10^5] | Colonies at 100X dil, viable intracellular bacteria in DCs ([1]; DCs+D39, Exp 3) | Viable intracellular bacteria in DCs ([1]; DCs+D39, Exp 3) [CFU/ml*10^5] | Mean colonies, viable intracellular bacteria in DCs ([1]; DCs+D39, mean) | number of intracellular bacteria in DCs, T4 [2, 3] | Colonies at 100X dil, viable intracellular bacteria in DCs ([2]; DCs+T4, MOI 10, 3 h post‐infection, 100 μM peptide, Exp1) | Viable intracellular bacteria in DCs ([2]; DCs+T4, Exp1) [CFU/ml*10^5] | Colonies at 100X dil, viable intracellular bacteria in DCs ([2]; DCs+T4, Exp 2) | Viable intracellular bacteria in DCs ([2]; DCs+T4, Exp 2) [CFU/ml*10^5] | Colonies at 100X dil, viable intracellular bacteria in DCs ([2]; DCs+T4, Exp 3) | Viable intracellular bacteria in DCs ([2]; DCs+T4, Exp 3) [CFU/ml*10^5] | Mean colonies, viable intracellular bacteria in DCs ([2]; DCs+T4, mean)
C=C1[C@@H](C)[C@H]2[C@H](Cc3ccccc3)NC(=O)[C@]23[C@H](OC(C)=O)/C=C/[C@@](C)(O)C(=O)[C@@H](C)C/C=C/[C@H]3[C@@H]1O [CytD, cytochalasin D, reference compound] | 6 and 5 and 4 | 4 and 5 |  |  |  |  |  |  |  |  |  |  |  |  |  |  |  | 
FTWSDGSPVSYEN [P2] |  |  | significantly reduced | 13 | 2.6 | 15 | 3 | 14 | 2.8 | 14 | significantly reduced | 17 | 1.7 | 21 | 2.1 | 19 | 1.9 | 19

Source: paper PMC7645366 (EMBO Molecular Medicine, 2020)
